From PubChem BioAssay AID889 (National Center for Advancing Translational Sciences (NCATS), 2007)
In all, about 75,000 compounds went through this assay and about 15 (0.02%) were called active. The inconclusive results got no clear call from the source; some entries with a clear call stand among them for comparison. The call rests on the fitted dose curve; in most records, active means well fitted inhibition curve with a large enough effect in the main read-out, with a control signal flat (not every such curve was filed as active); inconclusive means small, poorly fitted or top-dose-only effect, or a change in a side signal; inactive means flat fitted curve, though single readings scatter. Where the call is inconclusive, the potency comes from a doubtful curve fit. A note “side channel” means that the fit belongs to a control or component signal, not to the main read-out.

target: Caspase-7 (Homo sapiens) (UniProt P55210); assay: qHTS Assay for Allosteric/Competitive Inhibitors of Caspase-7; conditions: recombinant caspase-7, Ac-DEVD-AFC fluorescence rate; activity change, negative = inhibition: at 57.5 µM (top of the series) unless noted; on activity change, negative = inhibition: % of control where 0% means no effect
Potency means the concentration at half of the fitted maximal effect; tags describe the fitted curve by direction and shape or compound fluorescence and quenching.

Chain of UniProt P55210 (P55210 whole entry, looked up): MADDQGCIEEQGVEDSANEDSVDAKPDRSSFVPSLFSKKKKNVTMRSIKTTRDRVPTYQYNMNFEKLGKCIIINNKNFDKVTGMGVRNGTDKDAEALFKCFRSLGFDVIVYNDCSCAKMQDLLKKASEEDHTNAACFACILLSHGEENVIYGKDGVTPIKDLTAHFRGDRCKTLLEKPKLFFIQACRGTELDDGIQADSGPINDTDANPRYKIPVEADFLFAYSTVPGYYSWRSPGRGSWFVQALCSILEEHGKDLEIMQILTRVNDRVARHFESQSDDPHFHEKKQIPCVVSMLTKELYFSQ

Structure (SMILES) | Potency | activity change, negative = inhibition
COc1ccc(Cn2c3nc4ccccc4nc3c3c(=O)n(Cc4ccco4)cnc32)cc1 | inconclusive: 10 µM [inhibitor, partial curve] | 
CN(C)c1ncc2nc(-c3ccccc3)c(=O)n(CCC#N)c2n1 | inconclusive: 2 µM [fluorescent, side channel, full curve] | 
Cc1ccccc1OCC(=O)Nc1ccccc1N1CCCCC1 | inactive | 
CC(C)c1ccc2c(c1)c(SC(C)(C)C)c(CC(C)(C)C(=O)O)n2Cc1ccc(Cl)cc1 | inconclusive: 15.8 µM [quencher, full curve] | 
COC(=O)C1=CN(CCCN2CCCC2=O)C=C(C(=O)OC)C1c1cccs1 | inconclusive: 15.8 µM [fluorescent, side channel, partial curve] | 
Cc1nn(-c2ccccc2)c2sc(C(=O)c3c(N)n(C)c(=O)n(C)c3=O)cc12 | inconclusive: 25.1 µM [fluorescent, side channel, single point] | 
CC(C)(C)c1ccc(NC(=O)NCc2ccco2)cc1 | inactive | 
N#Cc1ccc(CSc2nc(-c3cccs3)c3c(c2C(=O)O)CCCC3)cc1 | inconclusive: 25.1 µM [inhibitor, single point] | 
COc1ccc(-c2nc3cnc(N4CCNCC4)nc3n(Cc3ccc(F)cc3)c2=O)cc1 | inconclusive: 25.1 µM [inhibitor, partial curve] | 
CCCCn1c(NC(=O)c2ccccc2Cl)c(C#N)c2nc3ccccc3nc21 | inconclusive: 20 µM [fluorescent, partial curve] | 
O=S(=O)(c1ccccc1)N1CCC[C@@]2(CCN(Cc3cc(C(F)(F)F)cc(C(F)(F)F)c3)C2)C1 | inactive | 
CC(=O)N1CCN(c2nc3cc4c(cc3nc2NS(=O)(=O)c2ccccc2)OCCO4)CC1 | inconclusive: 10 µM [fluorescent, side channel, partial curve] | 
CCc1ccc(NC(=O)C2CCN(S(C)(=O)=O)CC2)cc1 | inactive | 
O=c1c2ccccc2ncn1-c1ccc2c(c1)OCCO2 | inactive | 
COc1cccc(Cn2c(=O)c(-c3cccs3)nc3cnc(OC)nc32)c1 | inconclusive: 10 µM [fluorescent, partial curve] | 
COc1ccc(-c2nc(=S)[nH][nH]2)cc1 | inactive | 
O=C(CSc1nc2scc(-c3ccco3)c2c(=O)n1-c1ccccc1)N1CCOCC1 | inactive | 
COCCNC(=O)c1cc2c(=O)n3cccc(C)c3nc2n1C | inactive | 
CCCOc1ccccc1-c1nc2c([nH]1)c(=O)[nH]c(=O)n2C | inconclusive: 39.8 µM [inhibitor, single point] | 
CN(CC(=O)Nc1sccc1C#N)C1CCCCC1 | inconclusive: 25.1 µM [inhibitor, single point] | 
CCOCCCn1c(=N)c(C(=O)Nc2cc(C)on2)cc2c(=O)n3ccccc3nc21 | inconclusive: 3.16 µM [fluorescent, side channel, full curve] | 
COc1cccc(Cn2c(=O)c(-c3cccs3)nc3cnc(Nc4cccc(OC)c4)nc32)c1 | inconclusive: 12.6 µM [fluorescent, partial curve] | 

Structure (SMILES) | Potency | activity change, negative = inhibition
COc1ccc(CCNC(=O)c2cc3c(=O)n4cccc(C)c4nc3n(Cc3ccncc3)c2=N)cc1 | inconclusive: 15.8 µM [fluorescent, side channel, partial curve] | 
CN(C)c1ncc2ncc(=O)n(Cc3cccs3)c2n1 | inconclusive: 25.1 µM [fluorescent, partial curve] | 
Cc1ccc(S(=O)(=O)c2cc3c(=O)n4cccc(C)c4nc3n(Cc3ccco3)c2=N)cc1C | inconclusive: 15.8 µM [fluorescent, partial curve] | 
CCCOC(=O)Nc1ccc(N2CCCCC2)cc1 | inactive | 
COc1ccc(Oc2ncc3nc(-c4ccccc4)c(=O)n(C[C@H]4CCCO4)c3n2)cc1 | inactive | 
O=C(c1ccc(CSCc2ccccc2F)o1)N1CCN(c2ccc(N3CCOCC3)nn2)CC1 | inconclusive: 25.1 µM [fluorescent, side channel, single point] | 
Cc1cc(-c2ccco2)c(C#N)c2nc3ccccc3n12 | inconclusive: 3.98 µM [fluorescent, full curve] | 
Cc1cc(NS(=O)(=O)c2ccc(NC(=O)Cc3cccs3)cc2)no1 | inactive | 
CC(=O)[C@@H]1[C@@H]2C(=O)N(c3ccc(F)c(Cl)c3)C(=O)[C@@H]2C2c3ccccc3C=CN21 (some centres undefined) | inconclusive: 25.1 µM [inhibitor, partial curve] | 
CCOCCCn1c(=NC(C)=O)c(C(=O)OCC)cc2c(=O)n3ccccc3nc21 | inconclusive: 10 µM [fluorescent, side channel, partial curve] | 
COC(=O)C1=C(C)N(Cc2ccccc2)[C@]23O[C@](C(=O)OC)(C(=O)N2C1c1ccccc1)C1CCOC(=O)C13 (some centres undefined) |  | inactive: -1.67% [at 11.5 µM]
CCOc1ccc(CC(=O)N2CCN(c3ccc(N4CCOCC4)nn3)CC2)cc1OCC | inconclusive: 25.1 µM [fluorescent, single point] | 
CCNc1ncc2nc(-c3ccccc3)c(=O)n(C[C@H]3CCCO3)c2n1 | inconclusive: 2.51 µM [fluorescent, side channel, full curve] | 
CCN1c2ccccc2-c2nc3ccccc3n2C1c1cccnc1 (centres undefined) | inconclusive: 25.1 µM [fluorescent, partial curve] | 
COc1ccc(C(=O)Nc2cccc3c2C(=O)NC3=O)cc1S(=O)(=O)N1CCOCC1 | inconclusive: 25.1 µM [fluorescent, side channel, partial curve] | 
CC12CCC3c4ccc(OCc5ccccc5)cc4CCC3C1CC(O)C2O (centres undefined) | inactive | 
C=CCn1c(N)c(S(=O)(=O)c2cccs2)c2nc3ccccc3nc21 | inconclusive: 25.1 µM [fluorescent, partial curve] | 
N#C/C=C1\Sc2ccccc2C(=O)N1CC(=O)N1CCN(S(=O)(=O)c2ccccc2)CC1 | inconclusive: 25.1 µM [inhibitor, single point] | 
Cn1cc(-c2nc3cnc(N4CCNCC4)nc3n(C3CC3)c2=O)c2ccccc21 | inconclusive: 12.6 µM [inhibitor, partial curve] | 
O=C(NCCN1CCCCC1)c1ccc(Cc2nc3ccccc3[nH]2)cc1 | inactive | 
CC1CCc2cc(F)ccc2N1C(=O)c1cc2nc(-c3ccco3)cc(C(F)(F)F)n2n1 (centres undefined) | inconclusive: 20 µM [inhibitor, single point] | 
COCCN1C=C(C(=O)OC)C(c2ccc(OC)c(OC)c2)C(C(=O)OC)=C1 | inconclusive: 25.1 µM [fluorescent, partial curve] | 

Structure (SMILES) | Potency | activity change, negative = inhibition
O=C(NCc1ccc2c(c1)OCO2)C1CC(=O)N(C2CCCC2)C1 (centres undefined) | inconclusive: 25.1 µM [fluorescent, partial curve] | 
CCOC(=O)c1ccccc1NC(=O)CN1C(=O)c2ccccc2S1(=O)=O | inactive | 
CN1CCN(c2ncc3nc(-c4cn(C)c5ccccc45)c(=O)n(-c4ccccc4)c3n2)CC1 | inconclusive: 12.6 µM [fluorescent, partial curve] | 
Cc1ccc2c(c1)C(=O)[C@]1(O)CCN(c3ccccc3)C1=N2 | inconclusive: 31.6 µM [fluorescent, side channel, single point] | 
CC(C)CN1CC2(CCN(C(=O)c3ccco3)CC2)C1 | inactive | 
COCCn1c(=O)c(-c2cccs2)nc2cnc(N(C)C)nc21 | inconclusive: 1.26 µM [fluorescent, side channel, full curve] | 
Cc1ccccc1C(=O)N1CCN(c2ccc(NC(=O)c3ccco3)cc2Cl)CC1 | inactive | 
N#C/C(=C(/O)COC(=O)CCc1ccc(S(=O)(=O)N2CCOCC2)cc1)c1nc2ccccc2[nH]1 | inconclusive: 31.6 µM [inhibitor, single point] | 
COc1ccc(-c2nc3cnc(N4CCN(C)CC4)nc3n(Cc3cccc(OC)c3)c2=O)cc1 | inconclusive: 12.6 µM [fluorescent, partial curve] | 
Brc1ccc2nc(CSc3ncn[nH]3)cn2c1 | inactive | 
COc1ncc2nc(-c3cn(C)c4ccccc34)c(=O)n(CCc3ccccc3)c2n1 | inconclusive: 3.98 µM [fluorescent, side channel, partial curve] | 
Brc1cc2c(cc1Cn1c(-c3cncs3)nc3ccccc31)OCO2 | inactive | 
O=C(O)CCc1ccc(-c2ccccc2)n1Cc1ccco1 | inactive | 
COCCn1c(=O)c(-c2ccc(OC)cc2)nc2cnc(N3CCN(C)CC3)nc21 | inconclusive: 12.6 µM [fluorescent, side channel, partial curve] | 
Cc1cn(S(=O)(=O)c2ccc(Br)c3ccccc23)cn1 | inactive | 
Cc1cccn2c(=O)c3cc(C(=O)NCC4CCCO4)c(=N)n(Cc4cccnc4)c3nc12 (centres undefined) | inconclusive: 2.51 µM [fluorescent, side channel, full curve] | 
O=C(c1nc2n(n1)C(c1ccc(Cl)cc1)C=C(c1ccccc1)N2)N1CCOCC1 (centres undefined) | inconclusive: 20 µM [fluorescent, side channel, partial curve] | 
COc1ccc(CCNC(=O)c2cc3ccccn3n2)c(OC)c1OC | inactive | 
CN1CCN(c2ncc3nc(-c4cc(F)cc(F)c4)c(=O)n(Cc4cccs4)c3n2)CC1 | inconclusive: 12.6 µM [fluorescent, partial curve] | 
O=c1c(-c2cccs2)nc2cnc(Oc3ccccc3)nc2n1Cc1cccs1 | inconclusive: 12.6 µM [fluorescent, side channel, partial curve] | 
